From the supplement of paper PMC8728848
This is one part of the list.

Tests used:
Assay in all cases: glycan array binding signal (z-score within array); higher = stronger binding
Conditions in all cases: glycan notation: IUPAC condensed, linker removed; mutation: H84T
[1] = molecular target: Neu5Ac(a2-3)Gal(b1-3)GlcNAc(b1-6)GalNAc
Summary of the method: (§1)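 Glycan array data came from 3228 arrays in the Consortium for Functional Glycomics database, and only arrays with an available protein sequence were kept. Glycan names were put into IUPAC-condensed notation, and columns mapping to the same glycan were averaged. The binding signal is a within-array Z-score, averaged across arrays of one protein sequence run at different concentrations or buffers and across linkers. A negative Z-score can be read as non-binding.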

[2] = molecular target: Neu5Ac(a2-3)Gal(b1-3)GlcNAc6S
Summary of the method: as §1

[3] = molecular target: Neu5Ac(a2-3)Gal(b1-3)[Fuc(a1-4)]GlcNAc
Summary of the method: as §1

[4] = molecular target: Neu5Ac(a2-3)Gal(b1-3)[Fuc(a1-4)]GlcNAc(b1-3)Gal(b1-3)[Fuc(a1-4)]GlcNAc
Summary of the method: as §1

[5] = molecular target: Neu5Ac(a2-3)Gal(b1-3)[Fuc(a1-4)]GlcNAc(b1-3)Gal(b1-4)[Fuc(a1-3)]GlcNAc
Summary of the method: as §1

[6] = molecular target: Neu5Ac(a2-3)Gal(b1-3)[GlcNAc(b1-6)]GalNAc
Summary of the method: as §1

[7] = molecular target: Neu5Ac(a2-3)Gal(b1-3)[Neu5Ac(a2-6)]GalNAc
Summary of the method: as §1

[8] = molecular target: Neu5Ac(a2-3)Gal(b1-3)[Neu5Ac(a2-6)]GlcNAc(b1-3)[Fuc(a1-3)[Gal(b1-4)]GlcNAc(b1-6)]Gal(b1-4)Glc
Summary of the method: as §1

[9] = molecular target: Neu5Ac(a2-3)Gal(b1-3)]Neu5Ac(a2-3)Gal(b1-4)]GlcNAc
Summary of the method: as §1

Neu5Ac(a2-3)Gal(b1-4)Glc = molecular target: Neu5Ac(a2-3)Gal(b1-4)Glc
Summary of the method: as §1

[10] = molecular target: Neu5Ac(a2-3)Gal(b1-4)GlcNAc
Summary of the method: as §1

[11] = molecular target: Neu5Ac(a2-3)Gal(b1-4)GlcNAc(b1-2)Man
Summary of the method: as §1

[12] = molecular target: Neu5Ac(a2-3)Gal(b1-4)GlcNAc(b1-2)Man(a1-3)[GlcNAc(b1-4)][Neu5Ac(a2-3)Gal(b1-4)GlcNAc(b1-2)Man(a1-6)]Man(b1-4)GlcNAc(b1-4)GlcNAc
Summary of the method: as §1

[13] = molecular target: Neu5Ac(a2-3)Gal(b1-4)GlcNAc(b1-2)Man(a1-3)[Neu5Ac(a2-3)Gal(b1-4)GlcNAc(b1-2)Man(a1-6)]Man(b1-4)GlcNAc(b1-4)GlcNAc
Summary of the method: as §1

[14] = molecular target: Neu5Ac(a2-3)Gal(b1-4)GlcNAc(b1-2)Man(a1-3)[Neu5Ac(a2-3)Gal(b1-4)GlcNAc(b1-2)Man(a1-6)]Man(b1-4)GlcNAc(b1-4)[Fuc(a1-6)]GlcNAc
Summary of the method: as §1

[15] = molecular target: Neu5Ac(a2-3)Gal(b1-4)GlcNAc(b1-2)Man(a1-3)[Neu5Ac(a2-6)Gal(b1-4)GlcNAc(b1-2)Man(a1-6)]Man(b1-4)GlcNAc(b1-4)GlcNAc
Summary of the method: as §1

[16] = molecular target: Neu5Ac(a2-3)Gal(b1-4)GlcNAc(b1-2)[Neu5Ac(a2-3)Gal(b1-4)GlcNAc(b1-4)]Man(a1-3)[GlcNAc(b1-4)][Neu5Ac(a2-3)Gal(b1-4)GlcNAc(b1-2)[Neu5Ac(a2-3)Gal(b1-4)GlcNAc(b1-6)]Man(a1-6)]Man(b1-4)GlcNAc(b1-4)GlcNAc
Summary of the method: as §1

[17] = molecular target: Neu5Ac(a2-3)Gal(b1-4)GlcNAc(b1-2)[Neu5Ac(a2-3)Gal(b1-4)GlcNAc(b1-4)]Man(a1-3)[GlcNAc(b1-4)][Neu5Ac(a2-3)Gal(b1-4)GlcNAc(b1-4)Man(a1-6)]Man(b1-4)GlcNAc(b1-4)GlcNAc
Summary of the method: as §1

[18] = molecular target: Neu5Ac(a2-3)Gal(b1-4)GlcNAc(b1-2)[Neu5Ac(a2-3)Gal(b1-4)GlcNAc(b1-6)]Man(a1-6)[Neu5Ac(a2-3)Gal(b1-4)GlcNAc(b1-2)Man(a1-3)][GlcNAc(b1-4)]Man(b1-4)GlcNAc(b1-4)GlcNAc
Summary of the method: as §1

[19] = molecular target: Neu5Ac(a2-3)Gal(b1-4)GlcNAc(b1-3)Gal
Summary of the method: as §1

[20] = molecular target: Neu5Ac(a2-3)Gal(b1-4)GlcNAc(b1-3)Gal(b1-3)GlcNAc
Summary of the method: as §1

[21] = molecular target: Neu5Ac(a2-3)Gal(b1-4)GlcNAc(b1-3)Gal(b1-4)GlcNAc
Summary of the method: as §1

[22] = molecular target: Neu5Ac(a2-3)Gal(b1-4)GlcNAc(b1-3)Gal(b1-4)GlcNAc(b1-2)Man(a1-3)[Neu5Ac(a2-3)Gal(b1-4)GlcNAc(b1-3)Gal(b1-4)GlcNAc(b1-2)Man(a1-6)]Man(b1-4)GlcNAc(b1-4)GlcNAc
Summary of the method: as §1

[23] = molecular target: Neu5Ac(a2-3)Gal(b1-4)GlcNAc(b1-3)Gal(b1-4)GlcNAc(b1-3)Gal(b1-4)GlcNAc
Summary of the method: as §1

[24] = molecular target: Neu5Ac(a2-3)Gal(b1-4)GlcNAc(b1-3)Gal(b1-4)GlcNAc(b1-3)Gal(b1-4)GlcNAc(b1-2)Man(a1-3)[Neu5Ac(a2-3)Gal(b1-4)GlcNAc(b1-3)Gal(b1-4)GlcNAc(b1-3)Gal(b1-4)GlcNAc(b1-2)Man(a1-6)]GalNAc
Summary of the method: as §1

[25] = molecular target: Neu5Ac(a2-3)Gal(b1-4)GlcNAc(b1-3)Gal(b1-4)GlcNAc(b1-3)GalNAc
Summary of the method: as §1

[26] = molecular target: Neu5Ac(a2-3)Gal(b1-4)GlcNAc(b1-3)Gal(b1-4)GlcNAc(b1-3)[Neu5Ac(a2-3)Gal(b1-4)GlcNAc(b1-3)Gal(b1-4)GlcNAc(b1-6)]GalNAc
Summary of the method: as §1

[27] = molecular target: Neu5Ac(a2-3)Gal(b1-4)GlcNAc(b1-3)Gal(b1-4)GlcNAc(b1-6)[Gal(b1-3)]GalNAc
Summary of the method: as §1

[28] = molecular target: Neu5Ac(a2-3)Gal(b1-4)GlcNAc(b1-3)Gal(b1-4)[Fuc(a1-3)]GlcNAc
Summary of the method: as §1

[29] = molecular target: Neu5Ac(a2-3)Gal(b1-4)GlcNAc(b1-3)GalNAc
Summary of the method: as §1

B1: Banana lectin (Musa acuminata) (protein)
chain: MNGAIKVGAWGGNGGSAFDMGPAYRIISVKIFSGDVVDGVDVTFTYYGKTETRHYGGSGGTPHEIVLQEGEYLVGMAGEVANYTGAVVLGKLGFSTNKKAYGPFGNTGGTPFSLPIAAGKISGFFGRGGKFLDAIGVYLEPLEHHHHHH
[1]
  glycan array binding signal (z-score): -0.203
[2]
  glycan array binding signal (z-score): -0.151
[3]
  glycan array binding signal (z-score): -0.13
[4]
  glycan array binding signal (z-score): -0.084
[5]
  glycan array binding signal (z-score): -0.047
[6]
  glycan array binding signal (z-score): -0.189
[7]
  glycan array binding signal (z-score): -0.185
[8]
  glycan array binding signal (z-score): -0.182
[9]
  glycan array binding signal (z-score): -0.179
Neu5Ac(a2-3)Gal(b1-4)Glc
  glycan array binding signal (z-score): -0.168
[10]
  glycan array binding signal (z-score): -0.185
[11]
  glycan array binding signal (z-score): -0.188
[12]
  glycan array binding signal (z-score): -0.167
[13]
  glycan array binding signal (z-score): -0.182
[14]
  glycan array binding signal (z-score): -0.163
[15]
  glycan array binding signal (z-score): -0.181
[16]
  glycan array binding signal (z-score): -0.098
[17]
  glycan array binding signal (z-score): -0.199
[18]
  glycan array binding signal (z-score): -0.182
[19]
  glycan array binding signal (z-score): -0.163
[20]
  glycan array binding signal (z-score): -0.175
[21]
  glycan array binding signal (z-score): -0.193
[22]
  glycan array binding signal (z-score): -0.083
[23]
  glycan array binding signal (z-score): -0.194
[24]
  glycan array binding signal (z-score): -0.071
[25]
  glycan array binding signal (z-score): -0.181
[26]
  glycan array binding signal (z-score): -0.109
[27]
  glycan array binding signal (z-score): -0.179
[28]
  glycan array binding signal (z-score): -0.179
[29]
  glycan array binding signal (z-score): -0.194
